Over roughly 110,000 compounds, “z-score” has its median near -0.1; the highest 2% begin near 2. The list shows a part of the results. Activity calls are given as the source filed them.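 The calls were made as follows: active = z-score in the third read window above 3 or below -3; inactive = the rest.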
Each compound was assayed against Metabotropic glutamate receptor 8 (Rattus norvegicus) (UniProt P70579) (assay: mGluR8 Gi/Go-coupled signaling modulation – cell-based, rat, thallium flux, HTS, primary screen (AID 488969)). Settings: HEK293 rat mGluR8, GIRK (G protein-gated inwardly rectifying potassium channel) thallium flux, FluoZin2; at 10 µM; stronger effect = higher value; submaximal glutamate (EC20) added with thallium.
Chain of UniProt P70579 (P70579 whole entry, looked up): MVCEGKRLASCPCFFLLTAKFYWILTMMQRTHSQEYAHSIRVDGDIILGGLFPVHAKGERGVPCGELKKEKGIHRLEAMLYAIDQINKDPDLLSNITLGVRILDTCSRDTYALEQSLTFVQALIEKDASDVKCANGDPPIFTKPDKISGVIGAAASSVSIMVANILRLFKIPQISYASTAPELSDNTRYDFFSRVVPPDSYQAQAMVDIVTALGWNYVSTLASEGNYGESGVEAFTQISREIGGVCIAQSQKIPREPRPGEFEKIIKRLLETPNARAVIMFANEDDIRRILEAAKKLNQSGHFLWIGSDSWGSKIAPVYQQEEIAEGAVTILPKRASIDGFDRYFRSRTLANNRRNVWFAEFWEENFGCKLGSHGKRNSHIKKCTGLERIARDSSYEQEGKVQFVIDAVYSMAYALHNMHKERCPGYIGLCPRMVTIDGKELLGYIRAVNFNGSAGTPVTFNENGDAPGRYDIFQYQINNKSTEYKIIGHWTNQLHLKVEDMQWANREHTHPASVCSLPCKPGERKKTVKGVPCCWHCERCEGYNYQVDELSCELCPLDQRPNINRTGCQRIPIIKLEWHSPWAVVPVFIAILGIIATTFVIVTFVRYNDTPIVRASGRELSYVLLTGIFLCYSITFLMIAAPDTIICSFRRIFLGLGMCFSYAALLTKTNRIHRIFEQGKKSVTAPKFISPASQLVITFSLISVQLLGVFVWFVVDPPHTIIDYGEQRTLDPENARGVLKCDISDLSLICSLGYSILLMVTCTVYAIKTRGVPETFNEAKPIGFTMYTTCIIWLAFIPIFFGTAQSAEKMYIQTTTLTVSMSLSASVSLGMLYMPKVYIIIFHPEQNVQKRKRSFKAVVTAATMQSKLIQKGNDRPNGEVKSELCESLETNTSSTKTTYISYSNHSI
With `Cn1c(SCC(=O)Nc2nccs2)nnc1-c1ccc(S(=O)(=O)N2CCCC2)cc1` the z-score was -0.392. For `CCOc1ncccc1C(=O)OCC(=O)Nc1ncc(C(F)(F)F)cc1Cl`, the z-score was -0.105. With `CCc1ccc(NC(=S)NC(=O)CC(C)C)cc1` the z-score was 0.0726. With `CCOC(=O)N1CCN(c2c(NCCCN(C)c3ccccc3)c(=O)c2=O)CC1` the z-score was -0.525. `COc1ccccc1CN1C(=O)[C@@H]2C(CCC(N)=O)NC3(C(=O)Nc4c3ccc(Cl)c4C)[C@@H]2C1=O` (some centres not stated) was tested, and the z-score was 1.31. `Cc1cc(NC(=O)CSc2ccc3nnc(-c4cccc(F)c4)n3n2)no1` was tested, and the z-score was -0.196. `COc1ccccc1CNC(=O)c1ccoc1C` was tested, and the z-score was 0.225. `COC(=O)C(NC(=O)c1ccco1)(Nc1cc(C)ccn1)C(F)(F)F` (configuration not stated) gave a z-score of 0.329. `Cc1cccc(C)c1NC(=O)CSCc1cccc(CSCC(=O)Nc2c(C)cccc2C)n1` showed a z-score of 0.126. `CC(=O)Nc1nonc1NC(=O)CSC1=NCCS1` gave a z-score of 0.171. In the case of `COc1ccc(C2c3c4c(n(C)c3CCN2C)CCN(C)C4c2ccc(OC)cc2)cc1` (configuration not stated), the z-score is reported as 0.471. Work on `COc1ccnc(N=CNOCc2cccc(Cl)c2Cl)c1C#N` yielded a z-score of -0.158. Compound `CC(=O)c1c(C)nn(C(C)CC(=O)O)c1C` (configuration not stated) has a z-score of -0.0267. With `Cc1noc(C)c1CSc1nc2cc(S(=O)(=O)N3CCOCC3)ccc2o1` the z-score was 0.848. Compound `CC1=C(C(=O)Nc2ccccc2)C(c2ccncc2)C(C#N)=C(SCC(=O)Nc2ccccc2)N1` (configuration not stated) has a z-score of -0.1. With `O=C(OCc1cnc(Cl)s1)c1cccc(Cl)c1Cl` the z-score was -0.114. `O=c1cc(-c2ccccc2)[nH]n1-c1ccc([N+](=O)[O-])cc1` showed a z-score of -0.272. `O=C(N/N=C/c1cc([N+](=O)[O-])ccc1N1CCNCC1)c1ccc([N+](=O)[O-])cc1` was tested, and the z-score was 0.214. `C=CCC(CC=C)(NC(=O)c1ccccc1C)c1ccccc1` showed a z-score of -0.397. `Cc1cccc(OCC(=O)NCC(=O)n2nc(C)cc2C)c1` showed a z-score of 0.134. `COc1ccc(CSc2nc(C)cc(=O)[nH]2)cc1Br` was tested, and the z-score was -1.02. Work on `O=C(NC1CCCC1)C1(c2ccccc2)CCN(S(=O)(=O)c2ccccc2)CC1` yielded a z-score of -0.701. Compound `CCCOc1ccc(C(=O)NC(C)C(=O)O)cc1` (configuration not stated) has a z-score of 0.427. With `CCN(C1CCCCC1)S(=O)(=O)c1ccc(C(=O)O)cc1` the z-score was 0.0871. `Cc1nn2c3ccccc3n(CCN3CCCCC3)c2nc1=O` gave a z-score of -0.664. `Cc1ccccc1NC(=O)C1CCCN(S(=O)(=O)c2cnc[nH]2)C1` (configuration not stated) gave a z-score of -0.0966. `Cc1cccc(OC(C)C(=O)NCc2ccc(S(N)(=O)=O)cc2)c1` (configuration not stated) was tested, and the z-score was -0.238. Compound `O=C(O)c1ccc(OC2CSC2)cc1` has a z-score of -0.101. In the case of `Cn1c(-c2ccccc2)cnc1N`, the z-score is reported as -0.412. In the case of `CC(C)=CC(=O)Nc1ccccc1C(N)=O`, the z-score is reported as 0.312. In the case of `Cc1cn(C2OC(COC(=O)c3ccccc3)C(OC(=O)c3ccccc3)C2OC(=O)c2ccccc2)c(=O)[nH]c1=O` (configuration not stated), the z-score is reported as -1.18. `O=[n+]1c2c(n([O-])c3c1CCC3)CCCC2` was tested, and the z-score was -0.212. For `O=C(O)/C=C\C(=O)NCc1ccccc1`, the z-score was 0.0876. Work on `CCCCN(Cc1ccccc1)C(=O)C1CCN(S(=O)(=O)c2c(C)noc2C)CC1` yielded a z-score of -0.335. `O=C(COC(=O)C1CCC(=O)N1)Nc1cc(Cl)ccc1Cl` (configuration not stated) showed a z-score of 0.194. `COC(=O)C1CCN(S(=O)(=O)c2ccc(OC)cc2)CC1` showed a z-score of -0.0737. `COc1cc(OC)cc(-c2nnc(SCC(=O)N3CCCc4ccccc43)o2)c1` gave a z-score of -0.528. `COc1ccc2nc(C)cc(SCC(=O)N/N=C/c3ccc(O)cc3O)c2c1` showed a z-score of 0.263. For `CC(C)N(Cc1nc(-c2ccccc2)no1)S(=O)(=O)c1ccccc1`, the z-score was -0.225. Work on `Cc1nnc(SCC(=O)N2c3ccccc3CC2C)s1` (configuration not stated) yielded a z-score of 0.212. In the case of `Nc1ccnn1Cc1cccs1`, the z-score is reported as -0.113. For `CC(=O)OCCNc1cc(SCc2ccco2)c2nonc2c1[N+](=O)[O-]`, the z-score was -0.392. Work on `O=c1c2ccccc2ncn1-c1ccc(Cl)c(Cl)c1` yielded a z-score of -0.569. In the case of `Cc1cc2ccccc2nc1SCC(=O)N1c2ccccc2CC1C` (configuration not stated), the z-score is reported as 0.174. `CCN1CCN(C(=O)c2ccc(CSc3ccc(C)cc3)cc2)CC1` gave a z-score of -0.127. `O=C(COC(=O)c1ccncc1)NC(=O)C1CCCCC1` was tested, and the z-score was 0.0543. With `CC(Sc1nnc(Cc2cccs2)n1C1CCCCC1)C(=O)N1CCc2ccccc21` (configuration not stated) the z-score was 0.645. `NC(=O)c1ccsc1NC(=O)COC(=O)Cc1cccc2ccccc12` gave a z-score of 0.233. `CCN(CC)CCNC(C(=O)Nc1ccc([N+](=O)[O-])cc1Br)c1ccccc1` (configuration not stated) was tested, and the z-score was 0.798. Compound `CC1CCCCC1NC(=O)C(=O)NCC1CCCO1` (configuration not stated) has a z-score of -0.187. `Cc1cc(Oc2ccc(C(C)(C)C)cc2)nc(N2CCOCC2)n1` gave a z-score of -0.693. `CC(OC(=O)c1oc2ccccc2c1CSC1CCCCC1)C(=O)NC(N)=O` (configuration not stated) showed a z-score of -0.156. `Cc1ccc(S(=O)(=O)N2CCN(Cc3cccc(C)c3O)CC2)cc1` was tested, and the z-score was 0.58. Compound `COc1ccc(CNc2ccc(-c3ccc(OC)cc3)nn2)cc1` has a z-score of -1.25. For `CCC(CC)C(=O)Nc1cccc(C(=O)N2CCOCC2)c1`, the z-score was 0.227. `COC(=O)c1c(NC(=O)CSc2ncnc3c2cnn3-c2ccccc2Cl)sc2c1CCCC2` was tested, and the z-score was 0.181. Work on `Cc1cnn(C(=S)NCCc2ccccc2)c1` yielded a z-score of -0.366. Compound `COc1ccc(Cl)cc1-c1nc(-c2ccc(NC(=O)c3cccs3)cc2)no1` has a z-score of -0.334. Compound `O=C(Nc1ccccc1-c1nc2ccccc2[nH]1)c1ccc(S(=O)(=O)N2CCCCC2)cc1` has a z-score of -0.112. For `COCCn1c(SCC(N)=O)nnc1-c1c[nH]c2ccccc12`, the z-score was -0.303. With `O=C(CSc1ccc(-c2ccc(F)cc2)nn1)Nc1ccc2c(c1)OCCO2` the z-score was -0.287. `O=C1c2cccc3cccc(c23)C(=O)N1c1ccc2ncccc2c1` was tested, and the z-score was -0.261. Compound `COc1cc(NC(=S)NN2CCN(C)CC2)cc(OC)c1` has a z-score of -0.321. In the case of `C=CCN(CC=C)C(=S)NC(=O)c1ccc(OC)c(Br)c1`, the z-score is reported as active: 15.4. For `Cc1noc(/C=C/N(C)C)c1S(=O)(=O)N1CCCC(C(=O)NCCC2=CCCCC2)C1` (configuration not stated), the z-score was -0.237. `COc1ccc(NS(=O)(=O)c2cccc(Cl)c2Cl)cc1S(=O)(=O)N1CCCCC1` gave a z-score of -0.511. For `Cc1cccc(NCN2C(=O)C3C4C=CC(C4)C3C2=O)c1` (configuration not stated), the z-score was 0.00259. In the case of `Cc1ccc(NC(=O)[C@@H]2CCCN2S(=O)(=O)c2ccccc2F)cc1S(=O)(=O)N1CCOCC1`, the z-score is reported as 0.0593. In the case of `S=c1[nH]nc(CSc2nc3ccccc3s2)n1C1CCCCC1`, the z-score is reported as active: 14.9. Work on `Cc1nnc2sc(-c3cccc(NC(=O)c4cccnc4)c3)nn12` yielded a z-score of -2.98. With `C=CCn1c(C)cc(C(=O)CN2C(=O)c3ccccc3C2=O)c1C` the z-score was 0.595. `Cc1nn(Cc2ccccc2)c(C)c1/C=N/NC(=O)c1cccnc1` showed a z-score of 0.708. `CCN(CC)S(=O)(=O)c1ccc(C(=O)NC2=C(C(=O)OC)SCC2)cc1` showed a z-score of -0.366. In the case of `CNc1nc(OC)nc(N2CCOCC2)n1`, the z-score is reported as -0.113. In the case of `CCN(CC)c1ccc(C(=O)OCc2cc(=O)oc3cc(O)ccc23)cc1`, the z-score is reported as -0.383. `Cc1nc(C)c(CCNC(=O)c2cccc(Cl)c2)s1` was tested, and the z-score was -0.511. In the case of `O=[N+]([O-])c1nn(-c2ccc3c(c2)OCCO3)n(O)c1=Nc1ccc(Cl)cc1`, the z-score is reported as 0.501. `CCC(=O)c1cc2c(cc1NC(=O)c1ccc(C)cc1)OCCO2` was tested, and the z-score was -0.0769. Work on `COc1cc(NC(=S)N2CCN(C(=O)C3CCCO3)CC2)c(OC)cc1Cl` (configuration not stated) yielded a z-score of -0.362. In the case of `C/C(=N/n1cnnc1)c1cccnc1`, the z-score is reported as -0.439. Compound `O=C(NCc1ccc2c(c1)OCO2)C1CC(c2ccc(Cl)cc2)=NO1` (configuration not stated) has a z-score of 0.177. `c1ccc(-c2ccccc2OCCOCCN2CCCCC2)cc1` was tested, and the z-score was 0.49. Work on `Cc1cccc2c(=O)c(C(=O)NCCCN3CCOCC3)c[nH]c12` yielded a z-score of 0.205. For `OC1C2CN3CCN(C2)CC1(Cc1ccccc1)C3` (configuration not stated), the z-score was -0.319. For `O=C(CNC(=O)c1ccc(F)cc1)N/N=C/c1cn[nH]c1-c1ccccc1`, the z-score was -0.578. Work on `CC(C)CC(C(=O)O)C(C)CC(=O)Nc1ccn(-c2ccccc2)n1` (configuration not stated) yielded a z-score of -0.632. With `Cc1nn(C)cc1C1C2=C(CC(C)(C)CC2=O)N(c2ccccc2)C2=C1C(=O)CC(C)(C)C2` the z-score was 0.00482. `COc1cccc(NC(=O)c2ccc(Cn3cc([N+](=O)[O-])cn3)o2)c1` was tested, and the z-score was -0.478. For `COc1ccccc1NC(=O)Cn1c(=O)n2nc(C)nc2c2ccccc21`, the z-score was 0.659. `C=CCSC(=C(C#N)C#N)c1cc2c([nH]1)CCCC2` showed a z-score of -0.72. In the case of `CCc1ccc(OCC(=O)N(C)C)c(Br)c1`, the z-score is reported as -0.23. Work on `CCN(CC(=O)Nc1cccc(C(C)=O)c1)S(=O)(=O)c1ccc(OC)cc1` yielded a z-score of -0.323. In the case of `Fc1ccc(-c2ccnc(=S)[nH]2)cc1`, the z-score is reported as 0.44. For `CC(C)CCNC(=O)C1C2C=CC3(CN(Cc4ccccc4Cl)C(=O)C13)O2` (configuration not stated), the z-score was 0.263. `CCCCCCc1cc2cc(S(=O)(=O)c3ccc(F)c(Cl)c3)c(=O)oc2cc1O` showed a z-score of 0.064. `COCCSc1ccccc1C(=O)Nc1nncs1` gave a z-score of -0.0459. In the case of `CC(C)(C)c1[nH]c2ccccc2c1/C=N/O`, the z-score is reported as -0.142. `Cc1cc(C)n(S(=O)(=O)c2ccc(C)c(C)c2C)n1` gave a z-score of 0.242. For `CCOC(=O)c1c(C)[nH]c(C(=O)CSc2nnc(Nc3ccccc3F)s2)c1C`, the z-score was -0.0416. Compound `CC(=O)c1ccc(NS(=O)(=O)Cc2ccc(Cl)cc2)cc1` has a z-score of -0.0445. Work on `Cc1ccc2oc(-c3cccc(NC(=O)C4CCCO4)c3)nc2c1` (configuration not stated) yielded a z-score of -0.78. `COc1cccc(C(C(=O)NC2CCCCC2)N(CC2CCCO2)C(=O)CNC(=O)c2ccco2)c1` (configuration not stated) gave a z-score of 0.969. In the case of `CCCc1nc2c(=O)n(C)c(=O)[nH]c2n1CCC`, the z-score is reported as 0.0166. `CCOc1cc(/C=N/O)cc(Br)c1OCC` gave a z-score of -0.564. Compound `CN1CCC(=NNC(=O)C(=O)NC2CCCCC2)CC1` has a z-score of 2.04. `CCOC(=O)CSc1nc2ccc(N3CCOCC3)cc2c(=O)n1Cc1ccccc1` was tested, and the z-score was -0.0203. `Cc1cc(C)c(S(=O)(=O)N(C)CC(N)=O)c(C)c1` gave a z-score of -0.115. `COc1ccc(/C=N/NC(=O)CCc2n[nH]c(=O)[nH]c2=O)cc1OC` showed a z-score of 0.0361. `Cc1cccc(CS(=O)(=O)Cc2ccc(C(=O)NCC3CCCO3)o2)c1` (configuration not stated) showed a z-score of 0.188. Compound `N#C/C(=C\c1ccc(OC(=O)c2cccs2)cc1)c1nc2ccccc2[nH]1` has a z-score of 0.191. `CCn1c(SCc2ccc(Cl)cc2Cl)nc2nc3c(cc2c1=O)CCCC3` gave a z-score of -0.163. `CC(C)(C)N1CC(c2nc3ccccc3n2Cc2ccc(Cl)cc2)CC1=O` (configuration not stated) gave a z-score of -0.31.

From PubChem BioAssay AID488969 (Vanderbilt High Throughput Screening Facility, 2010)
